Measured values as given in PubChem BioAssay AID1508623 (National Center for Advancing Translational Sciences (NCATS), 2021).
Screen size: about 48,000 compounds; about 450 (0.94%) were called active. Another 19% or so got no clear call; they are omitted. Calls follow the shape of the dose curve; as a rule, active = well fitted inhibition curve with a large enough effect; inconclusive = small, poorly fitted or top-dose-only effect; inactive = no such curve, though single readings can be large or run the other way. Some of the results follow.

assay: Primary qHTS for Identification of Small Molecule Inhibitors of Huntingtin Promoter Activity; details: HEK293 HTT promoter firefly luciferase reporter (activity 0% = vehicle and -100% = no light), 24 h; series mostly up to 57.5 µM; activity change, negative = inhibition: at the top concentration; also: nearly all actives have a fitted effect of over 50% in size
How it was run: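 HEK293 cells carrying firefly luciferase reporters were seeded at 2,500 per well in Opti-MEM and cultured for 24 h. They were then treated with compounds at up to 57.5 uM final for 24 h at 37 degrees C before Dual-Glo luminescence readout.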

Activity change, negative = inhibition, inactive:
Cc1nnc(NC(=O)CSc2nccn2Cc2ccc(Cl)cc2)s1 -24.1%
O=C(CSc1cn(CCNC(=O)c2c(F)cccc2F)c2ccccc12)Nc1ccc(F)cc1 -27.2%
Cc1nc2nc(NC(=O)CC(C)C)[nH]n2c(=O)c1Cc1ccccc1 -11.9%
Cc1ccc(-c2c(C(=O)N3CCN(c4cc(Cl)ccc4C)CC3)oc(=O)c3ccccc23)cc1 -8.69%
COc1ccc(C)cc1NC(=O)c1cc2c(=O)n(Cc3cccnc3)ccc2nc1C -1.99%
O=C(Nc1ccc(F)c(Cl)c1)N1CCC2(CC1)Oc1ccccc1C(=O)N2Cc1ccccc1F -14.6%
CCc1nnc(SCC(=O)Nc2cc(OC)ccc2OC)nc1CC -22.2%
Cc1cccc(Cn2c(COc3ccc(Cl)cc3)nc3ccccc32)c1 -20.7%
CCOc1ccc(S(=O)(=O)N(CC(=O)NCCSc2ccc(C)cc2)c2ccccc2)cc1 -8.21%
CCn1nc(-c2ccccc2)c(-c2ccccc2)c(C(=O)Nc2nc(C)c(C(C)=O)s2)c1=O -9.26%
CCC(=O)N1CCc2cc(CNC(=O)c3ccc(OC)cc3)ccc21 -25.2%
CCCCn1cc(S(=O)(=O)c2ccc(C)c(C)c2)c(=O)c2cc(F)c(N(CC)CC)cc21 4.75%
COc1ccc(-c2nc(CN3CCC(C(=O)NCCc4ccccc4)CC3)c(C)o2)cc1OC -0.16%
Cc1ccc(NC(=O)CSc2nc(=O)n(Cc3ccco3)c3c2CCC3)cc1F 0%
Cn1c(=O)c(=O)n(C)c2cc(N3CCCC3)c(NC(=O)c3ccccc3F)cc21 -3.59%
Cc1ccc2c(c1)-c1onc(C(=O)N3CCN(c4cc(Cl)ccc4C)CC3)c1CO2 -17.2%
COC(=O)c1ccccc1NC(=O)c1cc(CN2CCCC2)on1 20.5%
CCC(=O)N1CCc2cc(CNC(=O)Cc3ccc(F)cc3)ccc21 8.35%
CCOC(=O)c1c(NC(=O)COc2ccc(C)cc2C(C)(C)C)sc2c1CCC(C)C2 (stereo not given) -6.14%
Cc1c(C(=O)N2CCC(C)CC2)c(S(=O)(=O)Nc2cccc(C(F)(F)F)c2)c(C)n1C -38.1%
COc1ccc(CNC(=O)Cn2c(=O)ccc3cc(S(=O)(=O)N4CCCC4)ccc32)cc1 -13.6%
Cc1ccc(Cn2c(CNC(=O)Cc3cccc(C)c3)nc3cccnc32)cc1 -8.27%
Cc1nn(S(=O)(=O)c2ccc(C(C)(C)C)cc2)c(C)c1S(=O)(=O)N1CCC(C)CC1 -9.3%
COCCN1C(=O)c2oc3ccc(C)cc3c(=O)c2C12C(=O)N(C)c1ccccc12 (stereo not given) -8.89%
CC(=O)Nc1ccc(NC(=O)C2(c3cccs3)CCOCC2)cc1 -5.56%
COc1ccccc1CNC(=O)c1cnc(SC)nc1C 0.423%
COCC(=O)Nc1cccc(-c2nc3cccnc3s2)c1 17.3%
COc1ccc(NC(=O)c2sc3nc4c(c(-c5ccc(OC)cc5)c3c2N)C(=O)CC(C)(C)C4)cc1 -14%
CCOC(=O)c1ccc(NC(=O)CC2Nc3ccccc3NC2=O)cc1 (stereo not given) -20.4%
O=C(Nc1cc(-c2nc3cc(Cl)ccc3o2)ccc1Cl)c1cc([N+](=O)[O-])ccc1N1CCOCC1 2.81%
Cc1ccc(CNCc2cccn2-c2nnc(N3CCCC3)s2)cc1 -33.9%
O=C(c1ccccc1Cl)N1CCCCC1CCN1CCOCC1 (stereo not given) -5%
CCOc1cccc2c1Oc1nc(-c3ccccc3)nc(SCC(=O)Nc3ccc(F)cc3)c1C2 -16.9%
CCn1cc(C(=O)O)c(=O)c2cc(F)c(N3CCNCC3)cc21
CC(C)(C)OC(=O)N1CCC(c2c(C(=O)N3CCCCC3)cnn2-c2ccccc2Cl)CC1 -1.86%
Cn1c(=O)oc2cc(S(=O)(=O)CCC(=O)NCCc3ccc(Cl)cc3)ccc21 -9.4% [at 11.5 µM]
COc1ccccc1OCc1nc(C#N)c(NCc2ccc(C)cc2)o1 -17.2%
Cn1c(=O)c2sccc2n2c(CCCC(=O)NC3CCCCC3)nnc12 -29.9%
Cc1ccc(Cl)cc1N1CCN(S(=O)(=O)c2cc(Br)cc3c2N(C(=O)C2CC2)CC3)CC1 -8.09%
CCOC(=O)CC(NC(=O)CCc1c(C)nc2c(c1C)c(=O)n(C)c(=O)n2C)c1ccc(OCC)c(OC)c1 (stereo not given) 13.7%
CC(=O)Nc1ccc(NC(=O)C(Cc2ccccc2)NS(=O)(=O)c2ccc3c(c2)oc(=O)n3C)cc1 (stereo not given) -9.37%
CC(C)c1ccc(NS(=O)(=O)c2ccc3[nH]cc(C(=O)NCCc4ccccc4)c(=O)c3c2)cc1 -17.8%
Cc1ccc(-n2nc(C)c3c(C)cc(=O)n(CC(=O)NC(C)c4ccccc4)c32)cc1 (stereo not given) 11.1%
CCn1nc(C)c2c(-c3ccccc3)cc(=O)n(C(C)C(=O)NCCc3ccc(OC)c(OC)c3)c21 (stereo not given) -13.9%
O=S(=O)(c1ccc(Cl)cc1)c1nnn2c1nc(NCc1ccc3c(c1)OCO3)c1sccc12 -2.96%
Cc1ccc(N(CC(=O)Nc2cc(C)ccc2C)S(=O)(=O)c2c(C)noc2C)cc1 -24.3%
COc1ccc(-n2c(SCC(=O)c3ccccc3)nc3c([nH]c4ccccc43)c2=O)cc1 -6.53%
CCCCN(CC)CCNC(=O)C1CCCN(c2ncnc3onc(C)c23)C1 (stereo not given) 2.9%
CCOc1ccccc1NC(=O)C1CCN(S(=O)(=O)c2ccc3c(c2)CCCN3C(C)=O)CC1 -12.8%
Cc1ccc(COC(=O)c2[nH]c3c(c2C)C(=O)CC(c2ccc(N(C)C)cc2)C3)cc1 (stereo not given) -2.86%
CC(=O)c1ccc(NC(=O)c2ccc(-n3cnnc3)cc2)cc1 -5.23% [at 11.5 µM]
CCC(=O)N1c2ccccc2CC1C(=O)NCc1ccc(N(C)C)cc1 (stereo not given) -13.8%
CCOc1ccc(C(=O)c2oc3ccccc3c2NC(=O)c2cc(-c3ccc(Cl)cc3)on2)cc1 -7.45%
COc1ccc(-c2nnc(SCC(=O)N(C)C3CCCCC3)o2)cc1OC 0.116%
O=c1oc2c3c(ccc2c2ccccc12)OCN(Cc1ccccc1Cl)C3 -7.57%
CN(Cc1ccccc1)c1ncnc2c1nnn2C -13.6%
COC(=O)c1sccc1S(=O)(=O)N(CC(=O)Nc1ccccc1F)c1ccccc1 9.45%
Cc1cccc(C(=O)n2nc(-c3cccnc3)nc2NCc2ccccc2)c1 -30.3%
CCn1cc(C(=O)NCCCOC)c(=O)c2cc(S(=O)(=O)N3CCCC3)ccc21 -2.92%
Cc1ccc(C(=O)NCCc2ccc(S(N)(=O)=O)cc2)cc1-n1cnc2cccnc21 5.33%
